Drawing on publication PMC12136788, this text covers binding signal for 22 molecules.

B1: 39782579_39782699_3472_3pUTR_ENSG00000078140_ENST00000261427|human|control|control (ssRNA)
RNA: GGGAGUUCUACAGUCCGACGAUCUACAGCUAAUUAUUUCUUCUUUUAAAAGAGGCACAUACUCAGGAAACAGGCCUGAUUAUAACAAAAGCCUACUGGAGCAUCAGUGACUUCUAACAAAUCGGCCUGCCCUAAAUGGGAUUUCAACAGAGGAUUGAGCAUCA
B2: chr2:74399864:74399865:-_ENSG00000114978_ENST00000396049|hu_mus|FALSE|FALSE (ssRNA)
RNA: GGGAGUUCUACAGUCCGACGAUCAGAGCUCAUACUGAUGGGACCCUUCAGGGAUAUUCUUCUUUGGUUUGAAUGUUUUCGAAGAGCGGCUGCUGAAGAGGAAGCUCAUCCUCGCUAGCCCGAGGGGCCGUGGCCCCCGCCCCGCAACAGAGGAUUGAGCAUCA
B3: 134130677_134131770_1959_CDS_ENSG00000145833_ENST00000354283|human|control|control (ssRNA)
RNA: GGGAGUUCUACAGUCCGACGAUCCUUAUCCACAAAUAUAAUGACAGAUCCUGACUCUUGAUAAUGGCCUAGAAGCUCAAGUAACUUCAAGAAUUUCUUUUCUUCUUCAAUCACAAUCACUUGUUGCUCCACAUCUGAGCAAACCAACAGAGGAUUGAGCAUCA
B4: chr7:151048522:151048523:+_ENSG00000013374_ENST00000566856|hu_hu|FALSE|FALSE (ssRNA)
RNA: GGGAGUUCUACAGUCCGACGAUCUUGCUUCUUAUUUAUGACAAUUUUGAUAUAAUUUUCUUGAAGUCCAAAGGUUUCAGCUAUUUUGGACCUCAGUUCUCUGCCAGUGAUGUGCAAUCGGGUCUCCAACAAGUUUUUCCUAUCCAACAGAGGAUUGAGCAUCA
B5: chr11:77336104:77336105:-_ENSG00000074201_ENST00000525064|hu_mus|hu_hu_hu_mus_False|28_98 (ssRNA)
RNA: GGGAGUUCUACAGUCCGACGAUCCUCACACAUUGCUGUGAACAUUGCCUCCAAUGCUGACUUAUCACUGGGCACAAAUCGAAAUUCAGAAAUGGGUUCAACAUCAUCAUCACUGUCCUCAUCUUCAUCAGAGAGAGGUUCUUUCAACAGAGGAUUGAGCAUCA
B6: chr7:141450121:141450122:+_ENSG00000106028_ENST00000265304|hu_mus|hu_hu_hu_mus_True|28_68 (ssRNA)
RNA: GGGAGUUCUACAGUCCGACGAUCUCAUCCGUUCUAUGCCUUUUCUUUUGUCUGGUCACUCAGAAAUAUAAUAUUAUCAGCUAUGAUUGUUGUUGCUUGCCGCCUCACAUUAUUUUUAUCCAUGUACUCGCCAUAGUCCACUUUCAACAGAGGAUUGAGCAUCA
B7: chr13:107772667:107772668:-_ENSMUSG00000021693_ENSMUST00000022204|mus_hu|FALSE|FALSE (ssRNA)
RNA: GGGAGUUCUACAGUCCGACGAUCCAUUUCAUUAGGAGCUGAGUCAUCAAAGGCAUAAUCAAAACGAAAUGUUUGGUUUUCUAGGUACCUUGUUAAAUCUACUUUUUGUUUUGGUUCAUGUACCAUCACAACAUCUUUACUAGGCAACAGAGGAUUGAGCAUCA
B8: 62888798_62888918_752_CDS_ENSG00000061987_ENST00000546600|human|control|control (ssRNA)
RNA: GGGAGUUCUACAGUCCGACGAUCUGCCUCAUCAUGAACUACUGUAUUGGUUGUUAAAAGAACAAGAACUGUUUGAAGUAGCUUAAGUUCUUCAAGACUAUUCUCCAUUAGCUGCCAAAGCAUGUUAAUUAUAUUUCCAGCUGCCAACAGAGGAUUGAGCAUCA
B9: chr1:202722107:202722108:-_ENSG00000117139_ENST00000367264|hu_hu|motif|central (ssRNA)
RNA: GGGAGUUCUACAGUCCGACGAUCCAUGAUGGUCACAAGCUGAUGGAGGAGAUCCGGCUGGGACACAAAGAGUUCUGGAGCGGGUUUCUUCAUUACAUUUUCUAGCUGCUCAGCAGCAUACCCUGGGACUCCAUACCAGGUUUUCAACAGAGGAUUGAGCAUCA
B10: chr1:58468927:58468928:-_ENSMUSG00000026034_ENSMUST00000148330|mus_mus|mus_mus_mus_hu_False|68_88 (ssRNA)
RNA: GGGAGUUCUACAGUCCGACGAUCAAUUACUGAAAAAGAUGUUCAUUUAUUUGGUUUUGUACUUAAUUUAAUAAAGCACCCAAACAAAAUAAACAUGGCAAUAUAAAAAUGUUAAGAAUUUACAAAGCUGUACAAAAUAACUUACAACAGAGGAUUGAGCAUCA
B11: 30145919_30148471_1160_CDS_ENSMUSG00000024817_ENSMUST00000025739|mouse|control|control (ssRNA)
RNA: GGGAGUUCUACAGUCCGACGAUCGGAAAUGGGAUGGGCUCCAGGCUUCUCAAUCUUGAAGAUUUCAUCUACAGACAUCACUCGGCAGUCAUUUAAUGUGCCUUCAGAGCCCCCCAGGAAAACUUUCACACGAACUUCCUUUUUCAACAGAGGAUUGAGCAUCA
B12: chr14:102446093:102446094:+_ENSG00000197102_ENST00000360184|hu_mus|FALSE|FALSE (ssRNA)
RNA: GGGAGUUCUACAGUCCGACGAUCCUCUGGGAUCUCAAUGUUCUGCUGCAGGUGGAGGAGUCCCAUUUCAAGCUCUGCAAUCUUUUUUUCAACUGAAGGAGCCAUCUUAUCACCAUCCCUGUCUGCUUUGCCAGACUCUCUGAUCAACAGAGGAUUGAGCAUCA
B13: chr15:37385894:37385895:-_ENSG00000134138_ENST00000382766|hu_mus|FALSE|FALSE (ssRNA)
RNA: GGGAGUUCUACAGUCCGACGAUCGCUUCCAUCUCUCUCAUCAAUCACGAGGUCAAUGGGCAUUUUUCCCUUCAAACAGCUAAUGUACCGGUGGCAGAAGUUAUCACAUAGUUCGUGGACCUUUUCUAACUCCAGAAGAUGAAACAACAGAGGAUUGAGCAUCA
B14: chr1:163117127:163117128:-_ENSG00000143248_ENST00000313961|hu_mus|hu_hu_hu_mus_False|68_108 (ssRNA)
RNA: GGGAGUUCUACAGUCCGACGAUCUGCGGGUUAUUAUGUAACUCAACUCACAGGGCAACUUUUGGAAGCCUGGCUAAAUGACUACUUGAUUAGCUCCUUAUAAAAUUCAGAGCGCACAAAGCGGGGCAGAGAAUCCUUCUCCAUCAACAGAGGAUUGAGCAUCA
B15: 101243506_101243626_2615_CDS_ENSMUSG00000042035_ENSMUST00000043983|mouse|control|control (ssRNA)
RNA: GGGAGUUCUACAGUCCGACGAUCUCGCCACAGCUCUGCCACGCACUGGUACUUGCCUGCCUCUGUGUCACUGGCCCGGCUGAUGCUCAGGCGGACAUUGUUGCUGGACUCAGCCUUCUCAAUGGCAGUCCGAGUUCGGAAAGUCAACAGAGGAUUGAGCAUCA
B16: chr14:76904430:76904431:+_ENSMUSG00000022010_ENSMUST00000022587|mus_mus|mus_mus_mus_hu_True|8_18 (ssRNA)
RNA: GGGAGUUCUACAGUCCGACGAUCUGCAGCCAAAAACACCCUCGUGGAAAAAAAGAGGGAACACCAGCAGCCUUGUAUAAGCUAGAUAAAAUCUUCUGGCUUUCCGCAGCCCAGGGAGUGAGAACGGUGGUGCUGGCUAAUUUACAACAGAGGAUUGAGCAUCA
B17: chr11:118888195:118888196:-_ENSG00000118181_ENST00000527673|hu_mus|FALSE|FALSE (ssRNA)
RNA: GGGAGUUCUACAGUCCGACGAUCCUUAUAGUUCGGAACCUCCUUACAGAGCUUGUCGUAUGUCGCUUUGUCGAACAGGACAAGAUUGUUCAACUUGUCCCGAACUUUGCCUUUGGACCACUUCUUCUUCUUGGCCUUGCCACCCAACAGAGGAUUGAGCAUCA
B18: chr13:67002414:67002415:-_ENSMUSG00000021520_ENSMUST00000021993|mus_hu|FALSE|FALSE (ssRNA)
RNA: GGGAGUUCUACAGUCCGACGAUCCUCUUUAGGCAAGAUCUGAUGCUUCAAGUUCAGGUCCAGUGCCCUCUUAAUGCGAAACAUCCUGUCAUUAUAAAGGUUCUCAGGAAGUCUUCUUAUGGCUUCUUUUACAUCUUCAUCCUCCAACAGAGGAUUGAGCAUCA
B19: 98688603_98690009_4302_CDS_ENSMUSG00000048154_ENSMUST00000023741|mouse|control|control (ssRNA)
RNA: GGGAGUUCUACAGUCCGACGAUCCACGAUACACUCCACACAACGCCAGCCCUUCAGCAGCAUCACCUUGGUGAUCUUGCUGUUGACACAGUACGGGUGAUAGCACUGAGAACACUGUGAACAGGCCAAGAGGUGGCCCUCAGCCAACAGAGGAUUGAGCAUCA
B20: chr17:23954396:23954397:+_ENSMUSG00000039218_ENSMUST00000088621|mus_hu|FALSE|FALSE (ssRNA)
RNA: GGGAGUUCUACAGUCCGACGAUCCUCUUUUGAUUCAGCAGUCUCCAAUCUACUCUGCCCCAAGAGAGAAUUCGAGUCCACUGUAGGAUAUGAAGAAGAGUCAGACUGGAACCUGCUCUGCUCAGGAGACAUUCCAGAUUUCAACAACAGAGGAUUGAGCAUCA
B21: chr17:62496765:62496766:-_ENSG00000108654_ENST00000581693|hu_mus|FALSE|FALSE (ssRNA)
RNA: GGGAGUUCUACAGUCCGACGAUCUGCUUGAUUAGCUUCCCGAAGCACAGAGAUAAGGUCGCUCACUUGCUUUAUGUUAUUAGGUGUAAAGAAAGUGUAUGCUGUGCCUGUUUUGGUACUGCGAGCAGUUCUUCCAAUUCGAUGCAACAGAGGAUUGAGCAUCA
B22: 36049889_36050009_883_3pUTR_ENSG00000180660_ENST00000379919|human|control|control (ssRNA)
RNA: GGGAGUUCUACAGUCCGACGAUCCGGAUUUUGCGCGCCGAGAGGUAGCCGGAGGCGGUAAUGAAUUCCACCCAGAGGGACAUGCUCCUCUUGCGCCCGUCGCUCAACUUCAGCACCGCGCAGCCGGGCAGUGAGCCAUCGUCCCAACAGAGGAUUGAGCAUCA

The other results are listed elsewhere or left out.

For this assay, the target named is T1, UNK ZnF1-3 (human, UniProt Q9C0B0 31-174).
T1 sequence: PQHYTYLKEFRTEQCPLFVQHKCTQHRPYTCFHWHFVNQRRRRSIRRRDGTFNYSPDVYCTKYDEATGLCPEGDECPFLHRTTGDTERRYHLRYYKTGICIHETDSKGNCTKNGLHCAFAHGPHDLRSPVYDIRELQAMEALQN
Description: nsRBNS (natural sequence RNA bind-n-seq); RBNS binding buffer (assumed for nsRBNS): 25 mM Tris pH 7.5, 150 mM KCl, 3 mM MgCl2, 0.01% Triton X-100, 500 ug/ml BSA, 20 U/ml SUPERase-In, 4 C; UNK is unkempt and MSI1 is Musashi-1; names of the RNAs are library labels; protein concentration not given here; high values mean tight binding.
Molecule B1 returned a binding signal of 0.871 enrichment R.

As for B2, the binding signal came to 0.949 enrichment R.

In turn, B3 showed a binding signal of 0.925 enrichment R.

B4: the binding signal came out at 0.673 enrichment R.

With B5, the binding signal was 0.972 enrichment R.

B6 displayed a binding signal of 0.521 enrichment R.

Molecule B7 had a binding signal of 0.78 enrichment R.

The molecule B8 registered a binding signal of 0.996 enrichment R.

In turn, B9 returned a binding signal of 1.09 enrichment R.

As to B10, the binding signal was determined as 1.17 enrichment R.

Take B11: the binding signal stood at 0.912 enrichment R.

Regarding B12, the binding signal is 0.677 enrichment R.

B13 returned a binding signal of 0.878 enrichment R.

As to B14, the binding signal was determined as 0.936 enrichment R.

B15: the binding signal was determined as 0.739 enrichment R.

In turn, B16 displayed a binding signal of 1.82 enrichment R.

Molecule B17 yielded a binding signal of 0.467 enrichment R.

Take B18: the binding signal came out at 0.492 enrichment R.

B19 displayed a binding signal of 0.873 enrichment R.

B20 came in with a binding signal of 0.817 enrichment R.

For B21, the binding signal was 0.527 enrichment R.

Molecule B22 yielded a binding signal of 1.07 enrichment R.
